# The supplement of paper PMC8728848
# The other results are listed elsewhere or left out.
# B1: Gal 3 (Homo sapiens), P17931 (protein)
# chain: MADNFSLHDALSGSGNPNPQGWPGAWGNQPAGAGGYPGASYPGAYPGQAPPGAYPGQAPPGAYHGAPGAYPGAPAPGVYPGPPSGPGAYPSSGQPSAPGAYPATGPYGAPAGPLIVPYNLPLPGGVVPRMLITILGTVKPNANILDFQRGNDVAFHFNPRFNENNRRVIVCNTKLDNNWGREEIQSVFPFESGKPFKIQVLVEPDHFKVAVNDAHLLQYNHRVKKLNEISKLGISGDIDLTSASYTMI
# Legend:
# Assay in all cases: glycan array binding signal (z-score within array); higher = stronger binding
# Conditions in all cases: glycan notation: IUPAC condensed, linker removed; mutation: R186I
# [1] = target: Neu5Ac(a2-3)Gal(b1-3)GlcNAc(b1-3)Gal(b1-3)GlcNAc
# Method in brief: (§1)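 Glycan array data came from 3228 arrays in the Consortium for Functional Glycomics database, and only arrays with an available protein sequence were kept. Glycan names were put into IUPAC-condensed notation, and columns mapping to the same glycan were averaged. The binding signal is a within-array Z-score, averaged across arrays of one protein sequence run at different concentrations or buffers and across linkers. A negative Z-score can be read as non-binding.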
# [2] = target: Neu5Ac(a2-3)Gal(b1-3)GlcNAc(b1-3)Gal(b1-4)GlcNAc
# Method in brief: as §1
# [3] = target: Neu5Ac(a2-3)Gal(b1-3)GlcNAc(b1-3)GalNAc
# Method in brief: as §1
# [4] = target: Neu5Ac(a2-3)Gal(b1-3)GlcNAc6S
# Method in brief: as §1
# [5] = target: Neu5Ac(a2-3)Gal(b1-3)[Fuc(a1-4)]GlcNAc
# Method in brief: as §1
# [6] = target: Neu5Ac(a2-3)Gal(b1-3)[Fuc(a1-4)]GlcNAc(b1-3)Gal(b1-3)[Fuc(a1-4)]GlcNAc
# Method in brief: as §1
# [7] = target: Neu5Ac(a2-3)Gal(b1-3)[Fuc(a1-4)]GlcNAc(b1-3)Gal(b1-4)[Fuc(a1-3)]GlcNAc
# Method in brief: as §1
# [8] = target: Neu5Ac(a2-3)Gal(b1-3)[Neu5Ac(a2-3)Gal(b1-4)]GlcNAc
# Method in brief: as §1
# [9] = target: Neu5Ac(a2-3)Gal(b1-3)[Neu5Ac(a2-6)]GalNAc
# Method in brief: as §1
# Neu5Ac(a2-3)Gal(b1-4)Glc = target: Neu5Ac(a2-3)Gal(b1-4)Glc
# Method in brief: as §1
# [10] = target: Neu5Ac(a2-3)Gal(b1-4)GlcNAc
# Method in brief: as §1
# [11] = target: Neu5Ac(a2-3)Gal(b1-4)GlcNAc(b1-2)Man(a1-3)[GlcNAc(b1-2)Man(b1-4)GlcNAc(b1-2)Man(a1-6)]Man(b1-4)GlcNAc(b1-4)GlcNAc
# Method in brief: as §1
# [12] = target: Neu5Ac(a2-3)Gal(b1-4)GlcNAc(b1-2)Man(a1-3)[Neu5Ac(a2-6)Gal(b1-4)GlcNAc(b1-2)Man(a1-6)]Man(b1-4)GlcNAc(b1-4)GlcNAc
# Method in brief: as §1
# [13] = target: Neu5Ac(a2-3)Gal(b1-4)GlcNAc(b1-3)Gal(b1-3)GlcNAc
# Method in brief: as §1
# [14] = target: Neu5Ac(a2-3)Gal(b1-4)GlcNAc(b1-3)Gal(b1-4)GlcNAc
# Method in brief: as §1
# [15] = target: Neu5Ac(a2-3)Gal(b1-4)GlcNAc(b1-3)Gal(b1-4)GlcNAc(b1-3)Gal(b1-4)GlcNAc
# Method in brief: as §1
# [16] = target: Neu5Ac(a2-3)Gal(b1-4)GlcNAc(b1-3)Gal(b1-4)[Fuc(a1-3)]GlcNAc
# Method in brief: as §1
# [17] = target: Neu5Ac(a2-3)Gal(b1-4)GlcNAc(b1-3)GalNAc
# Method in brief: as §1
# [18] = target: Neu5Ac(a2-3)Gal(b1-4)GlcNAc(b1-6)[Gal(b1-3)]GalNAc
# Method in brief: as §1
# [19] = target: Neu5Ac(a2-3)Gal(b1-4)GlcNAc(b1-6)[Neu5Ac(a2-3)Gal(b1-3)]GalNAc
# Method in brief: as §1
# [20] = target: Neu5Ac(a2-3)Gal(b1-4)GlcNAc6S
# Method in brief: as §1
# [21] = target: Neu5Ac(a2-3)Gal(b1-4)[Fuc(a1-3)]GlcNAc
# Method in brief: as §1
# [22] = target: Neu5Ac(a2-3)Gal(b1-4)[Fuc(a1-3)]GlcNAc(b1-3)Gal
# Method in brief: as §1
# [23] = target: Neu5Ac(a2-3)Gal(b1-4)[Fuc(a1-3)]GlcNAc(b1-3)Gal(b1-4)GlcNAc
# Method in brief: as §1
# [24] = target: Neu5Ac(a2-3)Gal(b1-4)[Fuc(a1-3)]GlcNAc(b1-3)Gal(b1-4)[Fuc(a1-3)]GlcNAc(b1-3)Gal(b1-4)[Fuc(a1-3)]GlcNAc
# Method in brief: as §1
# [25] = target: Neu5Ac(a2-3)Gal(b1-4)[Fuc(a1-3)]GlcNAc(b1-3)GalNAc
# Method in brief: as §1
# [26] = target: Neu5Ac(a2-3)Gal(b1-4)[Fuc(a1-3)]GlcNAc(b1-6)[Gal(b1-3)]GalNAc
# Method in brief: as §1
# [27] = target: Neu5Ac(a2-3)Gal(b1-4)[Fuc(a1-3)]GlcNAc(b1-6)[Neu5Ac(a2-3)Gal(b1-3)]GalNAc
# Method in brief: as §1
# [28] = target: Neu5Ac(a2-3)Gal(b1-4)[Fuc(a1-3)]GlcNAc6S
# Method in brief: as §1
# [29] = target: Neu5Ac(a2-3)Gal6S(b1-4)GlcNAc
# Method in brief: as §1
# [30] = target: Neu5Ac(a2-3)Gal6S(b1-4)[Fuc(a1-3)]GlcNAc
# Method in brief: as §1
# Neu5Ac(a2-3)GalNAc = target: Neu5Ac(a2-3)GalNAc
# Method in brief: as §1
# [31] = target: Neu5Ac(a2-3)GalNAc(b1-4)GlcNAc
# Method in brief: as §1
# [32] = target: Neu5Ac(a2-3)[GalNAc(b1-4)]Gal(b1-4)Glc
# Method in brief: as §1
# [33] = target: Neu5Ac(a2-3)[GalNAc(b1-4)]Gal(b1-4)GlcNAc
# Method in brief: as §1
# [34] = target: Neu5Ac(a2-3)[GalNAc(b1-4)]Gal(b1-4)GlcNAc(b1-3)GalNAc
# Method in brief: as §1
# [35] = target: Neu5Ac(a2-3)[Neu5Ac(a2-6)]GalNAc
# Method in brief: as §1
# Neu5Ac(a2-6)Gal = target: Neu5Ac(a2-6)Gal
# Method in brief: as §1
# Neu5Ac(a2-6)Gal(b1-4)Glc = target: Neu5Ac(a2-6)Gal(b1-4)Glc
# Method in brief: as §1
# [36] = target: Neu5Ac(a2-6)Gal(b1-4)GlcNAc
# Method in brief: as §1
binder,measurement,setting,value
B1,glycan array binding signal (z-score),[1],-0.18
same,glycan array binding signal (z-score),[2],-0.003
same,glycan array binding signal (z-score),[3],-0.186
same,glycan array binding signal (z-score),[4],-0.197
same,glycan array binding signal (z-score),[5],-0.194
same,glycan array binding signal (z-score),[6],-0.19
same,glycan array binding signal (z-score),[7],0.035
same,glycan array binding signal (z-score),[8],-0.039
same,glycan array binding signal (z-score),[9],-0.187
same,glycan array binding signal (z-score),Neu5Ac(a2-3)Gal(b1-4)Glc,-0.187
same,glycan array binding signal (z-score),[10],-0.195
same,glycan array binding signal (z-score),[11],-0.073
same,glycan array binding signal (z-score),[12],-0.159
same,glycan array binding signal (z-score),[13],-0.181
same,glycan array binding signal (z-score),[14],-0.18
same,glycan array binding signal (z-score),[15],-0.151
same,glycan array binding signal (z-score),[16],-0.162
same,glycan array binding signal (z-score),[17],-0.172
same,glycan array binding signal (z-score),[18],-0.189
same,glycan array binding signal (z-score),[19],-0.18
same,glycan array binding signal (z-score),[20],-0.183
same,glycan array binding signal (z-score),[21],-0.164
same,glycan array binding signal (z-score),[22],-0.158
same,glycan array binding signal (z-score),[23],0.013
same,glycan array binding signal (z-score),[24],-0.039
same,glycan array binding signal (z-score),[25],-0.166
same,glycan array binding signal (z-score),[26],-0.151
same,glycan array binding signal (z-score),[27],-0.078
same,glycan array binding signal (z-score),[28],-0.194
same,glycan array binding signal (z-score),[29],-0.155
same,glycan array binding signal (z-score),[30],0.163
same,glycan array binding signal (z-score),Neu5Ac(a2-3)GalNAc,-0.2
same,glycan array binding signal (z-score),[31],-0.161
same,glycan array binding signal (z-score),[32],-0.189
same,glycan array binding signal (z-score),[33],-0.177
same,glycan array binding signal (z-score),[34],-0.192
same,glycan array binding signal (z-score),[35],-0.193
same,glycan array binding signal (z-score),Neu5Ac(a2-6)Gal,-0.166
same,glycan array binding signal (z-score),Neu5Ac(a2-6)Gal(b1-4)Glc,-0.189
same,glycan array binding signal (z-score),[36],-0.02
